Laboratory results taken from patent publication US12484583B2 (priority 2019, dated 2025).

What was measured:
Assay type in all cases: cell-based
Fusarium culmorum [1] = test: Fungal growth on PDA agar, fipronil (Example 6); settings: 7 days
Text: (§1) The Colby equation (Colby, 1967. Weeds 15: 20-22) calculates the expected antifungal activity (E in %) of a combination comprising more than one active ingredients: E=X+Y−[(X·Y)/100] wherein X and Y are the observed antifungal activities (in %) of the individual active ingredients x and y, respectively. If the observed antifungal activity (O in %) of the combination exceeds the expected antifungal activity (E in %) of the combination and the synergy factor O/E is thus >1.0, the combined application of the active ingredients leads to a synergistic antifungal effect.
(§2) Agar medium was prepared by mixing in a 100 ml Duran bottle 3.9 g of potato dextrose agar (PDA) from Carl-Roth (Carl-Roth GmbH+Co. KG, Karlsruhe, Germany) with 100 ml deionized water and autoclaving the Duran bottle at 120° C. for 15 minutes. After autoclaving, the solution was cooled by putting it in a 48° C. oven for about two hours. […] The medium in the Duran bottle was divided over 5 petri dishes (90×15 mm), 20 ml per petri dish by using 25 ml serological pipets (ROTILABO®; Carl-Roth).
(§3) Fungal spore suspensions were prepared by drenching a fully grown petri dish with sterile water. The fungus was scraped off and filtered through a Miracloth (pore size: 22-25 μm) (Merck KGaA, Darmstadt, Germany; catalogue number: 475855). The number of spores were counted with a hemocytometer and fungal suspension was adjusted to 10^6 spores per ml. Afterward, 5 µl of prepared spore suspension was pipetted on the center of the agar plate. The plates were incubated at 25° C. Measurement of the fungal growth was done using calipers at different time points.
The insecticide concentration “N” (see below) that was used was 0.94 g insecticide product per 100 ml PDA agar. 0.5 N is 0.47 g. […] The efficacy was assessed after 7 days of incubation in a stove at 25° C. Synergistic calculation was done using the Colby equation.

Botrytis cinerea [2] = test: Fungal growth on PDA agar, chlorantraniliprole (Example 15)
Text: as §1, §2, §3
See Example 6. In this example the product CORAGEN® of Dupont containing the active ingredient chlorantraniliprole belonging to IRAC Group 28 was used.
The insecticide concentration “N” (see below) that was used was 125 μl of insecticide product per 100 ml PDA agar. Per 100 ml PDA agar the concentration 0.25N contained 31.25 μl coragen; 0.5N contained 62.5 μl coragen, 2N contained 250 μl coragen, 5N contained 625 μl coragen and 10N contained 1250 μl of the coragen product per 100 ml PDA agar.
The efficacy was assessed after 4 and 5 days of incubation in a stove at 25° C.

Fusarium culmorum [3] = test: Fungal growth on PDA agar, chlorfenapyr (Example 20); settings: 7 days
Text: as §1, §2, §3
See Example 6. In this example the product SPECTRE® (Adama) containing the active ingredient chlorfenapyr belonging to IRAC Group 13 was used.
The insecticide concentration “N” (see below) that was used was 1 ml of Spectre product added to 100 ml PDA agar. 0.5N: 0.5 ml and 0.25N is 0.25 ml Spectre per 100 ml of PDA agar.
The efficacy was assessed after 7 days of incubation in a stove at 25° C.

Alternaria solani = test: Fungal growth on PDA agar, lambda-cyhalothrin (Example 8); settings: 4 days
Text: as §1, §2, §3
(§4) See Example 6. In this example the product KARATE ZEON® of Syngenta containing the active ingredient lambda-cyhalothrin belonging to IRAC Group 3 was used.
The insecticide concentration “N” (see below) that was used was 500 μl of a 25 times in water diluted insecticide solution per 100 ml PDA agar. 2N is 1000 μl of the in water diluted solution per 100 ml PDA agar. 5N was 100 μl of the undiluted Karate zeon product in 100 ml of PDA agar.

Fusarium culmorum [4] = test: Fungal growth on PDA agar, lambda-cyhalothrin (Example 7); settings: 7 days
Text: as §1, §2, §3, §4
The insecticide concentration “N” (see below) that was used was 20 μl insecticide product per 100 ml PDA agar. 0.5 N is 10 μl per 100 ml PDA agar.

Botrytis cinerea [5] = test: Fungal growth on PDA agar, lambda-cyhalothrin (Example 10); settings: 6 days
Text: as §1, §2, §3, §4
The insecticide concentration “N” (see below) that was used was 20 μl of insecticide product per 100 ml PDA agar. 0.5N is 10 μl of the product per 100 ml PDA agar. 0.25N was 5 μl of the undiluted Karate zeon product in 100 ml of PDA agar and 0.125N was 2.5 μl of the insecticide product per 100 ml PDA agar.
1:25 (w/w) and 1:50 (w/w). The efficacy was assessed after 6 days of incubation in a stove at 25° C.

Sclerotinia sclerotiorum = test: Fungal growth on PDA agar, lambda-cyhalothrin (Example 9); settings: 4 days
Text: as §1, §2, §3, §4
The insecticide concentration “N” (see below) that was used was 500 μl of a 25 times in water diluted insecticide solution per 100 ml PDA agar. 2N is 1000 μl of the in water diluted solution per 100 ml PDA agar. 5N was 100 μl of the undiluted product in 100 ml of PDA agar.

Fusarium culmorum [6] = test: Fungal growth on PDA agar, thiamethoxam (Example 12); settings: alone or + natamycin 0.5 pm, 4 days
Text: as §1, §2, §3
See Example 6. In this example the active ingredient thiamethoxam belonging to IRAC Group 4 was mixed with water to make a 1000 ppm solution. The insecticide concentration “N” (see below) that was used was 5 ml of insecticide solution per 100 ml PDA agar. 2N is 10 ml of the thiamethoxam solution per 100 ml PDA agar.
The efficacy was assessed after 4 days of incubation in a stove at 25° C.

[7] = fipronil 0.5N (0.47 g REGENT per 100 ml PDA), alone or + natamycin 1 ppm (1:3760 w/w)
[8] = fipronil 1N (0.94 g REGENT per 100 ml PDA), alone or + natamycin 1 ppm (1:7520 w/w)
[9] = chlorantraniliprole 0.25N (31.25 μl coragen per 100 ml PDA), alone or + natamycin 1 ppm (1:62.5 w/w), after 4 days
[10] = chlorantraniliprole 0.25N (31.25 μl coragen per 100 ml PDA), alone or + natamycin 1 ppm (1:62.5 w/w), after 5 days
[11] = chlorantraniliprole 0.5N (62.5 μl coragen per 100 ml PDA), alone or + natamycin 1 ppm (1:125 w/w), after 4 days
[12] = chlorantraniliprole 0.5N (62.5 μl coragen per 100 ml PDA), alone or + natamycin 1 ppm (1:125 w/w), after 5 days
[13] = chlorantraniliprole 1N (125 μl CORAGEN per 100 ml PDA), alone or + natamycin 1 ppm (1:250 w/w), after 4 days
[14] = chlorantraniliprole 1N (125 μl CORAGEN per 100 ml PDA), alone or + natamycin 1 ppm (1:250 w/w), after 5 days
[15] = chlorantraniliprole 2N (250 μl coragen per 100 ml PDA), alone or + natamycin 1 ppm (1:500 w/w), after 4 days
[16] = chlorantraniliprole 2N (250 μl coragen per 100 ml PDA), alone or + natamycin 1 ppm (1:500 w/w), after 5 days
[17] = chlorantraniliprole 5N (625 μl coragen per 100 ml PDA), alone or + natamycin 1 ppm (1:1250 w/w), after 4 days
[18] = chlorantraniliprole 5N (625 μl coragen per 100 ml PDA), alone or + natamycin 1 ppm (1:1250 w/w), after 5 days
[19] = chlorantraniliprole 10N (1250 μl coragen per 100 ml PDA), alone or + natamycin 1 ppm (1:2500 w/w), after 4 days
[20] = chlorantraniliprole 10N (1250 μl coragen per 100 ml PDA), alone or + natamycin 1 ppm (1:2500 w/w), after 5 days
[21] = chlorfenapyr 0.25N (0.25 ml Spectre per 100 ml PDA), alone or + natamycin 1 ppm (1:536 w/w)
[22] = chlorfenapyr 0.5N (0.5 ml Spectre per 100 ml PDA), alone or + natamycin 1 ppm (1:1072 w/w)
[23] = chlorfenapyr 1N (1 ml Spectre per 100 ml PDA), alone or + natamycin 1 ppm (1:2145 w/w)
[24] = Lambda-cyhalothrin 1N (500 μl of 25 times diluted KARATE ZEON per 100 ml PDA), alone or + natamycin 0.5 ppm (1:100 w/w)
[25] = Lambda-cyhalothrin 2N (1000 μl of 25 times diluted KARATE ZEON per 100 ml PDA), alone or + natamycin 0.5 ppm (1:200 w/w)
[26] = Lambda-cyhalothrin 5N (100 μl undiluted Karate zeon per 100 ml PDA), alone or + natamycin 0.5 ppm (1:500 w/w)
[27] = cyhalothrin 0.5N (10 μl KARATE ZEON per 100 ml PDA), alone or + natamycin 1 ppm (1:25 w/w)
[28] = cyhalothrin 1N (20 μl KARATE ZEON per 100 ml PDA), alone or + natamycin 1 ppm (1:50 w/w)
[29] = cyhalothrin 0.25N (5 μl Karate zeon per 100 ml PDA), alone or + natamycin 1 ppm (1:12.5 w/w)
[30] = cyhalothrin 1N (500 μl of 25 times diluted KARATE ZEON per 100 ml PDA), alone or + natamycin 0.5 ppm (1:100 w/w)
[31] = cyhalothrin 2N (1000 μl of 25 times diluted KARATE ZEON per 100 ml PDA), alone or + natamycin 0.5 ppm (1:200 w/w)
[32] = cyhalothrin 5N (100 μl undiluted product per 100 ml PDA), alone or + natamycin 0.5 ppm (1:500 w/w)
[33] = thiamethoxam 0.5N (text defines only N and 2N)
[34] = thiamethoxam 1N (N = 5 ml of 1000 ppm solution per 100 ml PDA)

## N#Cc1nn(-c2c(Cl)cc(C(F)(F)F)cc2Cl)c(N)c1[S+]([O-])C(F)(F)F (racemic) [Fipronil, (±)-5-amino-1-(2,6-dichloro-α,α,α-trifluoro-p-tolyl)-4-trifluoromethyl sulfinylpyrazole-3-carbonitrile]
Fusarium culmorum [1]; [7]
  Area (fungal growth): 1742.33 mm2
  O % observed antifungal activity: 41.49%
Fusarium culmorum [1]; [8]
  Area (fungal growth): 1437.02 mm2
  O % observed antifungal activity: 51.74%

## CNC(=O)c1cc(Cl)cc(C)c1NC(=O)c1cc(Br)nn1-c1ncccc1Cl [Chlorantraniliprole, 5-bromo-N-[4-chloro-2-methyl-6-(methylcarbamoyl)phenyl]-2-(3-chloropyridin-2-yl)pyrazole-3-carboxamide]
Botrytis cinerea [2]; [9]
  Area (fungal growth; column head not given): 2762.05
  O % observed antifungal activity: −9.54
Botrytis cinerea [2]; [10]
  Area (fungal growth): 4357.23 mm2
  O % observed antifungal activity: −2.11%
Botrytis cinerea [2]; [11]
  Area (fungal growth; column head not given): 2841.26
  O % observed antifungal activity: −12.68
Botrytis cinerea [2]; [12]
  Area (fungal growth): 4549.21 mm2
  O % observed antifungal activity: −6.61%
Botrytis cinerea [2]; [13]
  Area (fungal growth; column head not given): 2897.46
  O % observed antifungal activity: −14.91
Botrytis cinerea [2]; [14]
  Area (fungal growth): 4370.03 mm2
  O % observed antifungal activity: −2.41%
Botrytis cinerea [2]; [15]
  Area (fungal growth; column head not given): 2599.18
  O % observed antifungal activity: −3.08
Botrytis cinerea [2]; [16]
  Area (fungal growth): 4341.96 mm2
  O % observed antifungal activity: −1.75%
Botrytis cinerea [2]; [17]
  Area (fungal growth; column head not given): 1270.26
  O % observed antifungal activity: 49.62
Botrytis cinerea [2]; [18]
  Area (fungal growth): 2747.54 mm2
  O % observed antifungal activity: 35.61%
Botrytis cinerea [2]; [19]
  Area (fungal growth; column head not given): 344.05
  O % observed antifungal activity: 86.36
Botrytis cinerea [2]; [20]
  Area (fungal growth): 705.44 mm2
  O % observed antifungal activity: 83.47%

## CCOCn1c(-c2ccc(Cl)cc2)c(C#N)c(Br)c1C(F)(F)F [Chlorfenapyr]
Fusarium culmorum [3]; [21]
  Area (fungal growth): 1040.80 mm2
  O % observed antifungal activity: 59.51%
Fusarium culmorum [3]; [22]
  Area (fungal growth): 644.86 mm2
  O % observed antifungal activity: 74.92%
Fusarium culmorum [3]; [23]
  Area (fungal growth): 228.67 mm2
  O % observed antifungal activity: 91.11%

## CC1(C)[C@H](/C=C(\Cl)C(F)(F)F)[C@@H]1C(=O)O[C@@H](C#N)c1cccc(Oc2ccccc2)c1 [Lambda-Cyhalothrin, [(R)-cyano-(3-phenoxyphenyl)methyl] (1S,3S)-3-[(Z)-2-chloro-3,3,3-trifluoroprop-1-enyl]-2,2-dimethylcyclopropane-1-carboxylate]
Alternaria solani; [24]
  Area (fungal growth): 1109.53 mm2
  O % observed antifungal activity: 32.05%
Alternaria solani; [25]
  Area (fungal growth): 871.89 mm2
  O % observed antifungal activity: 46.60%
Alternaria solani; [26]
  Area (fungal growth): 722.71 mm2
  O % observed antifungal activity: 55.74%
Fusarium culmorum [4]; [27]
  Area (fungal growth): 2546.95 mm2
  O % observed antifungal activity: 14.46%
Fusarium culmorum [4]; [28]
  Area (fungal growth): 2702.22 mm2
  O % observed antifungal activity: 9.25%
Botrytis cinerea [5]; [29]
  Area (fungal growth): 3544.50 mm2
  O % observed antifungal activity: −9.03%
Botrytis cinerea [5]; [27]
  Area (fungal growth): 3366.17 mm2
  O % observed antifungal activity: −3.54%
Botrytis cinerea [5]; [28]
  Area (fungal growth): 3295.33 mm2
  O % observed antifungal activity: −1.36%
Sclerotinia sclerotiorum; [30]
  Area (fungal growth): 1672.70 mm2
  O % observed antifungal activity: 14.54%
Sclerotinia sclerotiorum; [31]
  Area (fungal growth): 1620.50 mm2
  O % observed antifungal activity: 17.21%
Sclerotinia sclerotiorum; [32]
  Area (fungal growth): 1528.98 mm2
  O % observed antifungal activity: 21.89%

## CN1COCN(Cc2cnc(Cl)s2)C1=N[N+](=O)[O-] [thiamethoxam, N-[3-[(2-chloro-1,3-thiazol-5-yl)methyl]-5-methyl-1,3,5-oxadiazinan-4-ylidene]nitramide]
Fusarium culmorum [6]; [33]
  Area (fungal growth): 875.68 mm2
  O % observed antifungal activity: 6.43%
Fusarium culmorum [6]; [34]
  Area (fungal growth): 897.35 mm2
  O % observed antifungal activity: 4.11%
